Data taken from the supplement of paper PMC4996465.
Viability of KB3-1 and Nalm-6 cells after 48 h of drug alone (CellTiter-Glo), 11 doses over about 4.5 log units. % of DMSO wells, lower = more cell loss; AC50 from the fitted curve, lower = more potent. No active / inactive call. Nalm-6 was screened in two runs. AC50 is listed only for well-fitted inhibitory curves. KB3-1 is a HeLa-derived carcinoma line, Nalm-6 a B-cell precursor leukaemia line.

How the values were obtained:
[1] = tested on: Nalm-6; assay: log AC50 of viability decrease (48 h) (log10 M); higher = less potent
Description: (§1)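 Eleven-dose screen of the NCATS MIPE 3 library on cells without co-treatment; CellTiter-Glo after 48 h. AC50 from the curve fit; only inhibitory curves of the better fit classes are listed.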

[2] = tested on: KB3-1; assay: as above
Description: as §1

[3] = tested on: Nalm-6; assay: viability (% of DMSO control); higher = more viable cells
Description: (§2)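 Eleven-dose screen of the NCATS MIPE 3 library on cells without co-treatment; CellTiter-Glo after 48 h, as % of DMSO wells.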

[4] = tested on: KB3-1; assay: as above
Description: as §2

With Cc1cc(Nc2cc(N3CCN(C)CC3)nc(/C=C/c3ccccc3)n2)n[nH]1 the “log AC50 of viability decrease” value ([1]; run: 1) was -6.08, the “log AC50 of viability decrease” value ([1]; run: 2) was -5.88 and the “log AC50 of viability decrease” value [2] was -6.08. The viability ([3]; run: 1, 0.00078 µM) was 99.5%, the viability ([3]; run: 1, 0.00234 µM) was 98.6% and the viability ([3]; run: 1, 0.00702 µM) was 105%. It also gave a viability ([3]; run: 1, 0.0211 µM) of 101%, a viability ([3]; run: 1, 0.0632 µM) of 101% and a viability ([3]; run: 1, 0.19 µM) of 98.1%. For the same molecule, the viability ([3]; run: 1, 0.569 µM) was 67.9%, the viability ([3]; run: 1, 1.71 µM) was 36.8% and the viability ([3]; run: 1, 5.12 µM) was 29%. It also gave a viability ([3]; run: 1, 15.4 µM) of 29.3%, a viability ([3]; run: 1, 46.1 µM) of 0.99% and a viability ([3]; run: 2, 0.00078 µM) of 101%. It also gave a viability ([3]; run: 2, 0.00234 µM) of 106%, a viability ([3]; run: 2, 0.00702 µM) of 110% and a viability ([3]; run: 2, 0.0211 µM) of 110%. It also gave a viability ([3]; run: 2, 0.0632 µM) of 110%, a viability ([3]; run: 2, 0.19 µM) of 96% and a viability ([3]; run: 2, 0.569 µM) of 77.8%. The viability ([3]; run: 2, 1.71 µM) was 49.7%, the viability ([3]; run: 2, 5.12 µM) was 34.4% and the viability ([3]; run: 2, 15.4 µM) was 39.1%. For the same molecule, the viability ([3]; run: 2, 46.1 µM) was 2.34%, the viability ([4]; 0.00078 µM) was 90.1% and the viability ([4]; 0.00234 µM) was 93.5%. It also gave a viability ([4]; 0.00702 µM) of 96.3%, a viability ([4]; 0.0211 µM) of 91% and a viability ([4]; 0.0632 µM) of 90.8%. For the same molecule, the viability ([4]; 0.19 µM) was 85.2%, the viability ([4]; 0.569 µM) was 81.4% and the viability ([4]; 1.71 µM) was 47.2%. It also gave a viability ([4]; 5.12 µM) of 53.6%, a viability ([4]; 15.4 µM) of 54.2% and a viability ([4]; 46.1 µM) of 29.7%.

With COc1cc(Oc2ccnc3cc(OC)c(OC)cc23)ccc1NC(=O)NC(C)c1nccs1 (configuration not stated) the “log AC50 of viability decrease” value ([1]; run: 2) was -4.78, the “log AC50 of viability decrease” value [2] was -4.68 and the viability ([3]; run: 1, 0.00078 µM) was 86.4%. The viability ([3]; run: 1, 0.00234 µM) was 96.8%, the viability ([3]; run: 1, 0.00702 µM) was 106% and the viability ([3]; run: 1, 0.0211 µM) was 108%. It also gave a viability ([3]; run: 1, 0.0632 µM) of 105%, a viability ([3]; run: 1, 0.19 µM) of 122% and a viability ([3]; run: 1, 0.569 µM) of 125%. The viability ([3]; run: 1, 1.71 µM) was 112%, the viability ([3]; run: 1, 5.12 µM) was 109% and the viability ([3]; run: 1, 15.4 µM) was 97.6%. The viability ([3]; run: 1, 46.1 µM) was 48.2%, the viability ([3]; run: 2, 0.00078 µM) was 109% and the viability ([3]; run: 2, 0.00234 µM) was 110%. For the same molecule, the viability ([3]; run: 2, 0.00702 µM) was 124%, the viability ([3]; run: 2, 0.0211 µM) was 108% and the viability ([3]; run: 2, 0.0632 µM) was 113%. The viability ([3]; run: 2, 0.19 µM) was 117%, the viability ([3]; run: 2, 0.569 µM) was 112% and the viability ([3]; run: 2, 1.71 µM) was 116%. It also gave a viability ([3]; run: 2, 5.12 µM) of 110%, a viability ([3]; run: 2, 15.4 µM) of 96.3% and a viability ([3]; run: 2, 46.1 µM) of 72.5%. For the same molecule, the viability ([4]; 0.00078 µM) was 100%, the viability ([4]; 0.00234 µM) was 106% and the viability ([4]; 0.00702 µM) was 104%. For the same molecule, the viability ([4]; 0.0211 µM) was 106%, the viability ([4]; 0.0632 µM) was 108% and the viability ([4]; 0.19 µM) was 103%. For the same molecule, the viability ([4]; 0.569 µM) was 107%, the viability ([4]; 1.71 µM) was 98.8% and the viability ([4]; 5.12 µM) was 99%. For the same molecule, the viability ([4]; 15.4 µM) was 91.9% and the viability ([4]; 46.1 µM) was 61%.

For COC1=CC=C2[C@H]3CC[C@]4(C)[C@H](CC[C@H]4[C@@H]3CCC2=C1)NCCCCCCN5C(=O)\C=C/C5=O, the “log AC50 of viability decrease” value ([1]; run: 1) was -4.73, the “log AC50 of viability decrease” value ([1]; run: 2) was -4.68 and the “log AC50 of viability decrease” value [2] was -4.68. For the same molecule, the viability ([3]; run: 1, 0.00078 µM) was 108%, the viability ([3]; run: 1, 0.00234 µM) was 109% and the viability ([3]; run: 1, 0.00702 µM) was 118%. For the same molecule, the viability ([3]; run: 1, 0.0211 µM) was 120%, the viability ([3]; run: 1, 0.0632 µM) was 115% and the viability ([3]; run: 1, 0.19 µM) was 114%. It also gave a viability ([3]; run: 1, 0.569 µM) of 105%, a viability ([3]; run: 1, 1.71 µM) of 105% and a viability ([3]; run: 1, 5.12 µM) of 86.9%. The viability ([3]; run: 1, 15.4 µM) was 78.5%, the viability ([3]; run: 1, 46.1 µM) was 6.93% and the viability ([3]; run: 2, 0.00078 µM) was 105%. For the same molecule, the viability ([3]; run: 2, 0.00234 µM) was 99.2%, the viability ([3]; run: 2, 0.00702 µM) was 102% and the viability ([3]; run: 2, 0.0211 µM) was 103%. It also gave a viability ([3]; run: 2, 0.0632 µM) of 104%, a viability ([3]; run: 2, 0.19 µM) of 98.4% and a viability ([3]; run: 2, 0.569 µM) of 93%. It also gave a viability ([3]; run: 2, 1.71 µM) of 91.2%, a viability ([3]; run: 2, 5.12 µM) of 86.8% and a viability ([3]; run: 2, 15.4 µM) of 77.2%. The viability ([3]; run: 2, 46.1 µM) was 1.61%, the viability ([4]; 0.00078 µM) was 105% and the viability ([4]; 0.00234 µM) was 103%. The viability ([4]; 0.00702 µM) was 103%, the viability ([4]; 0.0211 µM) was 108% and the viability ([4]; 0.0632 µM) was 107%. It also gave a viability ([4]; 0.19 µM) of 108%, a viability ([4]; 0.569 µM) of 103% and a viability ([4]; 1.71 µM) of 106%. The viability ([4]; 5.12 µM) was 93.5%, the viability ([4]; 15.4 µM) was 81.1% and the viability ([4]; 46.1 µM) was 7.3%.
